From PubChem BioAssay (NCATS)
Values joined by “and” are separate entries in the source; they are usually repeats but may differ in a detail not shown here. Equal values may be shown once. The shares of active, inactive and inconclusive entries below differ from those in the screen. Where the call is inconclusive, the potency comes from a doubtful curve fit. Active and inactive are the calls of the source. Calls follow the shape of the dose curve; as a rule, active = well fitted inhibition curve with a large enough effect; inconclusive = small, poorly fitted or top-dose-only effect; inactive = no such curve, though single readings can be large or run the other way.

Test: Primary qHTS for small molecule stabilizers of the endoplasmic reticulum resident proteome: Secreted ER Calcium Modulated Protein (SERCaMP) assay (AID 1508630)
Conditions: SH-SY5Y GLuc-SERCaMP (Gaussia luciferase released on ER calcium loss) secretion, thapsigargin, luminescence; series mostly up to 38.4 µM
In short: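 The SH-SY5Y reporter protocol was run at 3 concentrations up to 38.3 uM (primary) or 11 concentrations (follow-up): 16 h compound, 100 nM thapsigargin for 4 h, then extracellular luciferase luminescence.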
Potency is read from the fitted curve at half-maximal effect; tags tell the direction and shape of the fitted curve.

Row | Structure (SMILES) | Potency
1 | CO[C@H]1C[C@@H]2CC[C@@H](C)[C@@](O)(O2)C(=O)C(=O)N2CCCC[C@H]2C(=O)O[C@H](C(C)C[C@H]2CC[C@@H](O)[C@H](OC)C2)CC(=O)[C@H](C)/C=C(\C)[C@@H](O)[C@@H](OC)C(=O)[C@H](C)C[C@H](C)/C=C/C=C/C=C/1C (some centres undefined) | inactive
2 | N#Cc1ccccc1OC[C@H](O)CNCCNC(=O)Nc1ccccc1 | inconclusive: 28.2 µM [inhibitor, single point]
3 | OCC(O)COc1cccc2ccccc12 (centres undefined) | inconclusive: 35.5 µM [inhibitor, partial curve]
4 | CC1=C(/C=C/C(C)=C\C=C\C(C)=C\C(=O)O)C(C)(C)CCC1 | inconclusive: 0.501 µM [inhibitor, partial curve, poor fit]
5 | CC1(C)Oc2ccc(C#N)cc2[C@@H](OC2=CC(=O)CC2)[C@@H]1O | inactive
6 | CC(C)=CCC1=C(O)[C@](O)(CC=C(C)C)C(=O)C(C(=O)CC(C)C)=C1O | inactive
7 | C[C@H](CCC(=O)NCC(=O)O)C1CC[C@H]2[C@H]3C(C[C@H](O)[C@]12C)[C@@]1(C)CC[C@@H](O)C[C@H]1C[C@H]3O (some centres undefined) | inconclusive: 3.55 µM [inhibitor, full curve, poor fit]
8 | C=CC1CN2CCC1C[C@H]2C(O)c1ccnc2ccc(OC)cc12 (some centres undefined) | inconclusive: 25.1 µM [inhibitor, single point] and inconclusive: 39.8 µM [inhibitor, single point]
9 | CO[C@H]1C[C@@H]2CC[C@@H](C)[C@@](O)(O2)C(=O)C(=O)N2CCCC[C@H]2C(=O)OC([C@H](C)C[C@@H]2CC[C@@H](O)[C@H](OC)C2)CC(=O)[C@H](C)/C=C(\C)[C@@H](O)[C@@H](OC)C(=O)[C@H](C)C[C@H](C)/C=C/C=C/C=C/1C (some centres undefined) | inactive
